Out of some 48,000 compounds screened, about 550 (1.1%) were called active. Roughly 4% stayed inconclusive and do not appear here. Rule as the data show it: active = potency below about 15 µM; inconclusive = mostly about 16 µM to 33 µM; inactive = weaker than that. The list shows a part of the results.
Target: Lysosomal acid glucosylceramidase (Homo sapiens) (UniProt P04062)
Test: Glucocerebrosidase;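 also: the screen sought inhibitors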
Conditions: purified enzyme, resorufin glucoside fluorescence (screen aimed at inhibitors), 20 min
Outline: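 Compounds titrated against 0.2 nM normal enzyme, 30 uM resorufin beta-D-glucopyranoside substrate, citrate/phosphate buffer with taurocholate and tween-20, pH 5.9. Reaction ran 20 min at room temperature; fluorescence (Ex 548/Em 600) gave AC50.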
Potency is read from the fitted curve at half-maximal effect.

Chain of UniProt P04062 (P04062 whole entry, looked up): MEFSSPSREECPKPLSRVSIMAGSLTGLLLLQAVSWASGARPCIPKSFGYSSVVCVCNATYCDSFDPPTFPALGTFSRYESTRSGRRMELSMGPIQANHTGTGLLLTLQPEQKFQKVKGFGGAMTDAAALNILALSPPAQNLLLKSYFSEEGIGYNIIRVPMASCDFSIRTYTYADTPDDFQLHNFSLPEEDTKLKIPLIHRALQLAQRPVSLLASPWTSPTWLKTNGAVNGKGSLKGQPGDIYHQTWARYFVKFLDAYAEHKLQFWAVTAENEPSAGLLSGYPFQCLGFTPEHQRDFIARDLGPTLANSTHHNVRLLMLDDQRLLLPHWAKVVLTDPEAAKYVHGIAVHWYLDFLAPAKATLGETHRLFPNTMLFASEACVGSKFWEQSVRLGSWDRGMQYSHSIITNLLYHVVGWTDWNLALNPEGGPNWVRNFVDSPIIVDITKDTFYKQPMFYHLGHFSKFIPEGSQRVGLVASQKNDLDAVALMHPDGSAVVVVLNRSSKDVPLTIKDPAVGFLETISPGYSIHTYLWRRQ

Potency, inactive:
CCCC12CN3CC(C)(CN(C1)C31C(=O)Nc3ccc(C)cc31)C2=O (configuration not stated) > 76.9 µM
COc1ccccc1CN1CC(C(=O)N2CCN(c3ccc(F)cc3)CC2)CC1=O (configuration not stated) > 76.9 µM
COC(=O)c1c(NC(=O)CN2CCOCC2)sc2c1CCC(C)C2 (configuration not stated) > 76.9 µM
CCOc1ccc(CCNC(=O)CCc2nc(-c3ccc(OC)cc3)no2)cc1OCC > 76.9 µM
O=C(CC1NC(=O)NC1=O)NC1(C(=O)NC2CCCCC2)CCCCC1 (configuration not stated) > 76.9 µM
Cc1cc(C(=O)O)sc1C > 76.9 µM
O=C(O)c1cc(N2C(=O)C3C4C=CC(C4)C3C2=O)ccc1NCc1cccnc1 (configuration not stated) > 76.9 µM
O=C(NCC1CCCO1)c1ccc(COc2ccc(F)cc2)o1 (configuration not stated) > 76.9 µM
CC1CN(C(=O)c2ccc(C(=O)c3ccccc3)cc2)CC(C)O1 (configuration not stated) > 76.9 µM
Cc1cc(OCc2nc(-c3cccnc3)no2)c(C)cc1Br > 76.9 µM
Cc1nc2ccc(Br)cn2c1NC(C)(C)C > 76.9 µM
O=C(COc1ccc(Cl)cc1)NCc1nnc(SCC(=O)NCc2ccc3c(c2)OCO3)o1 > 76.9 µM
COc1ccc(-c2nnnn2C)cc1S(=O)(=O)NCc1ccccc1 > 76.9 µM
CC(C)(C)OC(=O)N1CCOCCOCCN(C(=O)OC(C)(C)C)CCOCCOCC1 > 76.9 µM
CC1CCN(CCNC(=O)c2ccc3c(=O)n(CCc4ccccc4)c(=O)[nH]c3c2)CC1 > 76.9 µM
O=c1c2ccccc2nnn1CSc1nnc(-c2cccnc2)n1-c1ccccc1F > 76.9 µM
COc1ccc(CCNC(=O)CCN2C(=O)COc3ccccc32)cc1OC > 76.9 µM
CCOc1ccc(NC(=O)CCC(=O)n2nc(C)cc2C)cc1 > 76.9 µM
O/N=C1\CCC\C1=C/c1ccco1 > 76.9 µM
COc1ccc(C(=O)c2ccc(N(C)C)cc2)c(OC)c1 > 76.9 µM
O=S(=O)(c1ccc(-c2nnc(SCc3ccccc3)o2)cc1)N1CCCC1 > 76.9 µM
CC1(C)Cc2ccccc2-c2nnc(SCc3ccc(C#N)cc3)n21 > 76.9 µM
COc1ccc(C(=O)COC(=O)CCn2nnc(-c3cccs3)n2)cc1 > 76.9 µM
COc1ccc(C(=O)COC(=O)CN2C(=O)C3C4C=CC(C4)C3C2=O)cc1 (configuration not stated) > 76.9 µM
CCCCSc1nnc([C@@H](NC(=O)OC(C)(C)C)C(C)C)o1 > 76.9 µM
O=C(Nc1cnn(Cc2ccc(Cl)cc2Cl)c1)c1cc(-c2cccs2)on1 > 76.9 µM
Cn1ncc(C#N)c1/N=C/N1CCOCC1 > 76.9 µM
O=C(Nc1ccccc1)Nc1ccccc1C(=O)NCc1ccco1 > 76.9 µM
Cc1ccc(CNC(=O)c2nnn(-c3cccc(C)c3)c2N)cc1 > 76.9 µM
Cc1cc(C)n(Cc2ccccc2Cl)n1 > 76.9 µM
Cn1c(N)c(C(=O)COC(=O)c2ccc3c(c2)OCCO3)c(=O)n(C)c1=O > 76.9 µM
Cc1n[nH]c(=O)nc1NCc1ccc(Cl)cc1 > 76.9 µM
COc1cc(OC)cc(-n2nnnc2SCC(=O)NCc2ccc3c(c2)OCO3)c1 > 76.9 µM
O=C(c1c(Cl)nc2sccn12)N1CCCc2ccccc21 > 76.9 µM
COc1ccc(NC(=O)CN2c3cccc4cccc(c34)S2(=O)=O)cc1 > 76.9 µM
Cc1nn2c3c(cnc2c1-c1ccccc1)C(=O)CC(c1ccco1)C3 (configuration not stated) > 76.9 µM
CCn1c(COc2ccccc2)nnc1SCC(=O)Nc1cc(OC)ccc1OC > 76.9 µM
Clc1c(-c2nnc3n2CCC3)sc2ccccc12 > 76.9 µM
Cc1ccccc1C(=O)c1cccn1CC(=O)NCC1CCCO1 (configuration not stated) > 76.9 µM
COc1ccc(Nc2ncccc2C(=O)Nc2ccccc2)cc1 > 76.9 µM
O=C1c2ccccc2C(=O)N1OCc1ccccc1 > 76.9 µM
N#Cc1nc(Cc2ccccc2)oc1NCc1cccnc1 > 76.9 µM
Nc1nc(NCc2ccco2)nn1-c1ccccc1 > 76.9 µM
CCC(CC)C(=O)Nc1cc(C(=O)OC)cc(C(=O)OC)c1 > 76.9 µM
CCOc1ccccc1C1C(C#N)=C(SCC(=O)OC)NC(=O)C1C(=O)OC (configuration not stated) > 76.9 µM
CCc1ccc(NS(=O)(=O)c2cccs2)cc1 > 76.9 µM
N=c1nc(-c2ccccc2)ccn1O > 76.9 µM
O=C(COc1cccc(NC(=O)c2ccco2)c1)c1ccc(F)cc1 > 76.9 µM
CCCCCOC(=O)Cn1c(N2CCCCCC2)nc2c1c(=O)[nH]c(=O)n2C > 76.9 µM
CCCCCC1CC(=O)N(Cc2ccccc2)C(=O)N1 (configuration not stated) > 76.9 µM
COc1ccc(NC(=O)CSc2nnc(-c3cccnc3)n2Cc2ccco2)c(OC)c1 > 76.9 µM
COc1ccc(Nc2cc(=O)n(C3CCCCC3)c(=O)[nH]2)c(OC)c1 > 76.9 µM
O=C(CSc1nnc(Cc2ccccc2)o1)NC1CC2CCC1C2 (configuration not stated) > 76.9 µM
Cc1ccc(S(=O)(=O)N(CC(O)CN2CCCC2)c2ccccc2)cc1 (configuration not stated) > 76.9 µM
CC(C)(C)Cc1nc(-c2ccccn2)no1 > 76.9 µM
COc1ccccc1NC(=O)CCC(=O)Nc1ccccc1OC > 76.9 µM
CCOc1ccc(-c2noc(-c3ccncc3)n2)cc1OCC > 76.9 µM
Brc1cccc(C2CC(c3ccccc3)n3nnnc3N2)c1 (configuration not stated) > 76.9 µM
COc1ccc(/C(O)=C2/C(=O)C(=O)N(Cc3cccnc3)C2c2ccccn2)cc1 (configuration not stated) > 76.9 µM
CCOC(=O)CCCn1c(C)nc(=O)c(-c2ccccc2)c1C > 76.9 µM
Cc1c(C(=O)O)oc2ccc(S(=O)(=O)NCCC3=CCCCC3)cc12 > 76.9 µM
Cc1cc(C)c2oc(=O)cc(CN3CCN(Cc4ccc5c(c4)OCO5)CC3)c2c1 > 76.9 µM
Cc1cc(F)c(F)c(C(=O)NC2CC2)c1Cl > 76.9 µM
CCOc1ccc(CCN2C(=O)CCC2(C)C(=O)NC(C)CC)cc1OCC (configuration not stated) > 76.9 µM
O=S(=O)(Nc1cccc2cn[nH]c12)c1ccc(F)cc1 > 76.9 µM
CCS(=O)(=O)N1Cc2ccccc2CC1C(=O)Nc1nc2ccccc2[nH]1 (configuration not stated) > 76.9 µM
Cc1ccccc1C(=O)/C=C1\NC(=O)CS1 > 76.9 µM
Cc1ccc(-n2c(SCC(=O)N3CCOCC3)nnc2-c2ccncc2)cc1 > 76.9 µM
O=c1c(-c2ccc3c(c2)OCCO3)coc2c(CN3CCOCC3)c(O)ccc12 > 76.9 µM
Cc1cccc(Cn2c(=O)n(Cc3ccco3)c(=O)c3ccccc32)c1 > 76.9 µM
Cc1ccccc1OCC(O)Cn1c(=N)n(CCN2CCOCC2)c2ccccc21 (configuration not stated)
O=C(NCCCc1ccccc1)C1CC(=O)N(c2ccc3c(c2)OCCO3)C1 (configuration not stated) > 76.9 µM
CS(=O)(=O)Nc1ccc(C(=O)NCC2CCCO2)cc1 (configuration not stated) > 76.9 µM
O=C(O)c1ccc(-c2ccccc2C(F)(F)F)o1 > 76.9 µM
NC(=O)C1(N2CCCCC2)CCN(C(=O)CSc2nc(C(F)(F)F)cc(=O)[nH]2)CC1 > 76.9 µM
CCCCNC(=O)CCSc1nc2nc(C)cc(C)n2n1 > 76.9 µM
CCC(C)(C(=O)NC1CCCC1)N(C(=O)c1ccccn1)c1ccccc1 (configuration not stated) > 76.9 µM
Cc1ccccc1NC(=O)Cn1c(=O)n(C)c2ccccc21 > 76.9 µM
CC1Oc2ccccc2N(CC(=O)Nc2ccc3c(c2)OCCO3)C1=O (configuration not stated) > 76.9 µM
O=C(CSc1nnc(-c2cccnc2)n1C1CCCCC1)NC1CCCC1 > 76.9 µM
COc1cccc(C(=O)Cn2c(=O)n(CC3CCCO3)c(=O)c3ccccc32)c1 (configuration not stated) > 76.9 µM
CCCN(CCC)c1nc(C)cc(C(C#N)c2nc3ccccc3o2)n1 (configuration not stated) > 76.9 µM
CC(C)(Oc1ccc(Cl)cc1)C(=O)NCc1ccncc1 > 76.9 µM
Cc1c(C(=O)N(C)Cc2ccccc2)oc2ccc(S(=O)(=O)N3CCCC3)cc12 > 76.9 µM
Cc1nc2nc(COc3ccccc3)[nH]n2c(=O)c1Cc1ccccc1 > 76.9 µM
CC(C)CC(OC(=O)c1cccs1)C(=O)NCC1CCCO1 (configuration not stated) > 76.9 µM
COc1ccccc1-n1cnc2cc(C(=O)NCc3ccco3)ccc21
O=C(CCS(=O)(=O)Cc1ccccc1F)NCCCN1CCCCC1 > 76.9 µM
COc1cc2c(C(=O)N3CCN(C)CC3)c(C)oc2cc1Br
N#CC1=C(N)OC2=C(C(=O)CCC2)C1Cc1ccccc1 (configuration not stated) > 76.9 µM
CC1CCCCN1S(=O)(=O)c1ccc(S(=O)(=O)N2CCN(c3ccc(F)cc3)CC2)cc1 (configuration not stated) > 76.9 µM
CC(=O)c1cccc(OCCN2C(=O)NC(C)(C)C2=O)c1 > 76.9 µM
